Source: a collection of fitness landscapes (doi:10.1016/j.celrep.2020.107928)
Whole data set: some 81,000 sequences, median “one-hybrid fitness for binding NBS DNA” near -0.1, cut for the highest 2% near 0.36. The list shows a part of the results.

B1: Caulobacter ParB omega fusion; a variant is named by its letters at X, in order, B8GW30 (parent)
chain: MESVVVGEPGMSEGRRGLGRGLSALLGEVDAAPAQAPGEQLGGSREAPIEILQRNPDQPRRTFREEDLEDLSNSIREKGVLQPILVRPSPDTAGEYQIVAGERAWRAAQRAGLKTVPIMVRELDDLAVLEIGIIENVQRADLNVLEEALSYKVLMEKFERTQENIAQTIGKSXSHVANXMRLLXLPDEVQSYLVSGELTAXHARAIAAAADPVALAKQIIEGGLSVRETEALARKAPNLSAGKSKGGRPPRVKDTDTQALESDLSSVLGLDVSIDHRGSTGTLTITYATLEQLDDLCNRLTRGI

Variants of: B1
Experiment: one-hybrid fitness for binding NBS DNA (the Noc-binding site; scaled: cognate 1, non-cognate 0); higher = stronger binding
Conditions: with NBS DNA site
Procedure, shortened: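 Bacterial one-hybrid selection in E. coli USO rpoZ- hisB- pyrF- with a HIS3 reporter carrying the site 19 bp from the promoter, screening Caulobacter ParB libraries with four specificity codons randomised (NNS). Cells grew 48 hours at 37°C on M9-minus-histidine plus 0.1 mM IPTG and 5 mM 3-AT. Plasmids before and after selection were Illumina-sequenced, three replicate libraries pooled, and variants under 10 reads dropped. Fitness is the log change in variant-to-wild-type read ratio, rescaled to cognate 1, non-cognate 0.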

Variant	one-hybrid fitness for binding NBS DNA
RCYA	0.24
EALV	≤ 0.2
TKCL	≤ 0.2
AYLR	≤ 0.2
QIRD	≤ 0.2
WVGR	≤ 0.2
PPDF	≤ 0.2
YKAG	≤ 0.2
KGNR	≤ 0.2
RNPI	≤ 0.2
RAVA	≤ 0.2
NTTK	≤ 0.2
MCSL	≤ 0.2
GKMG	≤ 0.2
VDYT	≤ 0.2
RCMR	0.461
QYAI	≤ 0.2
WLHF	≤ 0.2
RNMH	≤ 0.2
KLSM	≤ 0.2
FQVT	≤ 0.2
VHSN	≤ 0.2
KFRC	≤ 0.2
SEPS	≤ 0.2
VQLA	≤ 0.2

Variant	one-hybrid fitness for binding NBS DNA
GVGS	≤ 0.2
SITG	≤ 0.2
FMPK	0.314
RHGQ	≤ 0.2
QANC	≤ 0.2
DALR	≤ 0.2
ILYY	≤ 0.2
AHGS	≤ 0.2
CDTD	≤ 0.2
TPYP	≤ 0.2
IKPC	≤ 0.2
NLAA	≤ 0.2
PTWS	≤ 0.2
GTKI	≤ 0.2
IHSQ	≤ 0.2
CFAN	≤ 0.2
GYIS	≤ 0.2
GATQ	≤ 0.2
PKSV	≤ 0.2
CFSL	≤ 0.2
TPCQ	≤ 0.2
NNGS	≤ 0.2
NIPL	≤ 0.2
SRDL	≤ 0.2
REAG	≤ 0.2

Variant	one-hybrid fitness for binding NBS DNA
CVEL	≤ 0.2
RDNR	≤ 0.2
CVHP	≤ 0.2
EVMM	≤ 0.2
PCTA	≤ 0.2
QIID	≤ 0.2
ECTD	≤ 0.2
HIPR	≤ 0.2
AGHD	≤ 0.2
TLLI	≤ 0.2
TVMY	≤ 0.2
PLYR	≤ 0.2
GVTS	≤ 0.2
SCLA	≤ 0.2
EGAK	≤ 0.2
PEES	≤ 0.2
HRTL	≤ 0.2
RHVC	≤ 0.2
EAFV	0.24
TRDL	≤ 0.2
NNCC	≤ 0.2
APWW	≤ 0.2
VVNR	≤ 0.2
EWRT	≤ 0.2
PHQV	≤ 0.2

Variant	one-hybrid fitness for binding NBS DNA
QRCS	0.693
QQVE	≤ 0.2
DLRR	≤ 0.2
ISLF	≤ 0.2
ETRC	≤ 0.2
VCHR	≤ 0.2
GSNI	≤ 0.2
CAFR	≤ 0.2
QWCL	≤ 0.2
LTCV	≤ 0.2
CDYR	≤ 0.2
CTCA	≤ 0.2
LSEC	≤ 0.2
TART	≤ 0.2
VVTT	≤ 0.2
RFQE	≤ 0.2
VYRG	≤ 0.2
HKYR	≤ 0.2
WYRV	≤ 0.2
YFNS	≤ 0.2
DLKP	≤ 0.2
SNGD	≤ 0.2
TKKM	≤ 0.2
PHSL	≤ 0.2
QVNY	≤ 0.2

Variant	one-hybrid fitness for binding NBS DNA
TSTA	≤ 0.2
LISS	≤ 0.2
QQDV	≤ 0.2
TKQS	≤ 0.2
ARLT	≤ 0.2
PQAF	≤ 0.2
HYRA	≤ 0.2
SFEA	≤ 0.2
GYDS	≤ 0.2
MRTR	≤ 0.2
GRLT	≤ 0.2
DGDN	≤ 0.2
ICLN	≤ 0.2
RQGR	0.447
KFFW	≤ 0.2
ASFW	≤ 0.2
RPRW	≤ 0.2
LITI	≤ 0.2
TRPS	≤ 0.2
MHTS	≤ 0.2
RVLS	0.262
KGNH	≤ 0.2
PARW	≤ 0.2
CPME	≤ 0.2
HTDC	≤ 0.2

Variant	one-hybrid fitness for binding NBS DNA
SNRG	≤ 0.2
QGRG	≤ 0.2
LRGW	≤ 0.2
YVYW	≤ 0.2
QSWT	0.348
QIRL	≤ 0.2
LAQT	≤ 0.2
RGWI	≤ 0.2
ALGC	≤ 0.2
MYGE	≤ 0.2
MPSL	≤ 0.2
APVF	≤ 0.2
QSTE	≤ 0.2
VETG	≤ 0.2
NAPV	≤ 0.2
DLSF	≤ 0.2
CYCR	≤ 0.2
MRFT	≤ 0.2
FCTS	≤ 0.2
NKHR	≤ 0.2
WSDW	≤ 0.2
RKHK	≤ 0.2
HDFF	≤ 0.2
KGQV	≤ 0.2
NCNF	≤ 0.2

Variant	one-hybrid fitness for binding NBS DNA
WDHS	≤ 0.2
PRIL	≤ 0.2
YIWG	≤ 0.2
ELPA	≤ 0.2
EGQA	≤ 0.2
YRRY	≤ 0.2
RMNM	≤ 0.2
LSHI	≤ 0.2
MAQY	≤ 0.2
RPIF	≤ 0.2
CTPC	≤ 0.2
RRFW	≤ 0.2
VRNC	≤ 0.2
LFRQ	≤ 0.2
AAWG	≤ 0.2
PEVG	≤ 0.2
FTCV	≤ 0.2
QICS	0.216
IRLD	≤ 0.2
MHAL	≤ 0.2
AMAW	≤ 0.2
QEPL	≤ 0.2
GNYC	≤ 0.2
DNLL	≤ 0.2
DMPV	≤ 0.2

Variant	one-hybrid fitness for binding NBS DNA
QKEL	≤ 0.2
RWHN	≤ 0.2
HRLS	≤ 0.2
RKDH	0.401
KLMA	≤ 0.2
GARK	≤ 0.2
HEAS	≤ 0.2
VEPL	≤ 0.2
HYSL	≤ 0.2
HGRK	≤ 0.2
SRCA	≤ 0.2
GMTS	≤ 0.2
LRNT	0.22
AYKY	≤ 0.2
MNAP	≤ 0.2
RTPL	≤ 0.2
DRNP	≤ 0.2
GTFS	≤ 0.2
SMCH	≤ 0.2
NLAL	≤ 0.2
